# According to PMC12136788:
# This is one part of the list.
# B1: ENSG00000152601:stop:overlap|stop_codon|ENSG00000152601|stop_codon|NA|stop_codon (ssRNA)
# RNA: GGGAGUUCUACAGUCCGACGAUCACCAGAUACCCAUAAUAUCUGCCGAACAUCUGACUAGCCACAAGUAUGUUACCCAGAUGUAGAAUUUUCAUCACUAAACAAUCAUGCUAAAGAGGAAAGGACAGUGUGCUUGGUUAGAGUCAACAGAGGAUUGAGCAUCA
# B2: chr12:123761472:123761573:+|3pUTR|ENSG00000185344|unk|FALSE|unique (ssRNA)
# RNA: GGGAGUUCUACAGUCCGACGAUCAAUAAGGCAGUUUGAACGAACAGUCUUCCCACAGUCAGGCCAUUUUUGCUGAUUUGGUUUAGAAUUUUCAGAAAUACUUAGUACACUCCACCUGUUCUUUGAUGGGAAUAUCUAAGAAGGCAACAGAGGAUUGAGCAUCA
# B3: chr3:12540195:12540433:-|CDS|ENSG00000225526|control|control|control (ssRNA)
# RNA: GGGAGUUCUACAGUCCGACGAUCCACCAUAACUGCUACUCUUACGCACUCACGUUCAUUAACUGCGUUCUGAUGGCAGAAGGUAGACAGCAACUGGACAAGGGUGAAUUUACGGAGAAGUACGUGGUCCCGCGGACAAGGCUGCAACAGAGGAUUGAGCAUCA
# B4: chr1:155134173:155134274:+|3pUTR|ENSG00000169242|msi1|FALSE|unique (ssRNA)
# RNA: GGGAGUUCUACAGUCCGACGAUCGCCACUUUCAGAGCCCCCAGCCCUGGGAACCACUCCCACCACAGGCAUAAGCUAUCACCUAGCAGCCUCAAAACGGGUCAGUAUUAAGGUUUUCAACCGGAAGGAGGCCAACCAGCCCGACAACAGAGGAUUGAGCAUCA
# B5: chr2:166409664:166409935:-|three_prime_utr|ENSG00000136546|control|control|control (ssRNA)
# RNA: GGGAGUUCUACAGUCCGACGAUCUGUGGUAACAAGCCAAGCUUUUAAUGUCAUUGUUAUGGUUCUUAUAUGUUUCCAAGCAAUAGCCAUGAUGAUAGACACUGAUGUUCAGAGUCUACAAAUGUCCAUUGCUCUCUACUGGAUCAACAGAGGAUUGAGCAUCA
# B6: chr10:123051058:123051159:+|CDS|ENSG00000196177|unk|total|mutant (ssRNA)
# RNA: GGGAGUUCUACAGUCCGACGAUCCAAGUGGCUCACGUGGCCACCCAGCUGGAAGCUGCAAGAUUACUAACAUACAAUGCUGCCCGGCUUUCCGAAGCUGGAAAGCCAUUCAUAAAAGAAGCGUCAAUGGCCAAAUACUAUGCACAACAGAGGAUUGAGCAUCA
# B7: chrX:119453419:119453520:+|3pUTR|ENSG00000077713|unk|FALSE|unique (ssRNA)
# RNA: GGGAGUUCUACAGUCCGACGAUCCAGGUAAUUGAAGUGGCUGAGUGGAUACCACGUUGUGAGGUCAGCCACUGGGUCACUUGUAGUCAAUGCAAAGCUUGCACAAACCAACGUCAGCCUAGUUUCACUCAGUUUGACCUGAGACAACAGAGGAUUGAGCAUCA
# B8: chr7:6403584:6403671:+|3pUTR|ENSG00000136238|msi1_unk|total|mutant (ssRNA)
# RNA: GGGAGUUCUACAGUCCGACGAUCUUUUCCCGUAACCCGGUGUAAAAAUCAUGUGUUGCAGCUUUACCGUUUUUAAAAUAUUUCCGAUAAUUCUUAAACUAUGAACCUUCUUAACAUCACUGUCUUGCCAGAUUACCGACACUGCAACAGAGGAUUGAGCAUCA
# B9: chr1:51919672:51919773:-|3pUTR|ENSG00000169213|unk|total|mutant (ssRNA)
# RNA: GGGAGUUCUACAGUCCGACGAUCUAUUCUUUGCCUGCCCCUGGGGUUCUCUGCAGAUGGUCCCAGUAACCGAUACUCAGCACCCGACUAACAUAACAGGUCACUACACGGGUGCAGAAUCACUUUACAAAAGAAGACUCUGUUCAACAGAGGAUUGAGCAUCA
# B10: chr4:102797111:102797208:-|3pUTR|ENSG00000109332|msi1_unk|FALSE|overlapping (ssRNA)
# RNA: GGGAGUUCUACAGUCCGACGAUCUCUGAGAAGACUUAAGUUCUUCCAGCUUUGGACAAUAACUGCUUUUAGAAACUGUAAAGUAGUUACAAGAGAACAGUUGCCCAAGACUCAGAAUUUUUAAAAAAAAAAAUGGAGCAUGUGCAACAGAGGAUUGAGCAUCA
# B11: chr2:190436306:190436418:+|CDS|ENSG00000151690|unk|FALSE|unique (ssRNA)
# RNA: GGGAGUUCUACAGUCCGACGAUCCCUUUUGCCUGUGUAUUACAAACAGCUGGGAAUGUCUCCAAGCCAGAGUGGACUACUAGUAGGUAUUCGUUACUUCAUUGAAUUCUGCAGUGCCCCCUUUUGGGGUGUAGUUGCAGACCGCAACAGAGGAUUGAGCAUCA
# B12: chr6:132296306:132296407:-|3pUTR|ENSG00000079931|msi1|FALSE|unique (ssRNA)
# RNA: GGGAGUUCUACAGUCCGACGAUCAUGGGAAACAUAGAAAUGGUAUGUAUUAAUAACUGAUCAUAGGCUGAGGAGAAAAAAUGUAGCUGGCUGCAAACCCAGUGCUGUGAGGUGACUUAUAUGAGGUUCCAGAUCAAAGACAGGCAACAGAGGAUUGAGCAUCA
# B13: chr17:34256851:34257067:+|3pUTR|ENSG00000108691|msi1|FALSE|unique (ssRNA)
# RNA: GGGAGUUCUACAGUCCGACGAUCUUAAGUAAUGUUAAUUCUUAUUUAAGUUAUUGAUGUUUUAAGUUUAUCUUUCAUGGUACUAGUGUUUUUUAGAUACAGAGACUUGGGGAAAUUGCUUUUCCUCUUGAACCACAGUUCUACCAACAGAGGAUUGAGCAUCA
# B14: ENSG00000198589:be:win_5701|CDS|ENSG00000198589|bound_else_gene|NA|bound_elsewhere_windowed (ssRNA)
# RNA: GGGAGUUCUACAGUCCGACGAUCUUUAUCCUGAGCAGGCAGAGAGCAGAAGAUAUUCACAGACAUGCGGAAUUUGAGUCACUGUGUGCCCAGUAUUCUGCAGACAAACGAGAAGAUGAGAAGAUGUGUGAUCAUUUGAUAAGACAACAGAGGAUUGAGCAUCA
# B15: ENSG00000162129:stop:overlap|stop_codon|ENSG00000162129|stop_codon|NA|stop_codon (ssRNA)
# RNA: GGGAGUUCUACAGUCCGACGAUCAGACUCGCAGACUGGACAUCCGGGCACCACUGCACCCUGAGAAGGUGUGCAACACCAUCUAGCAGCCACCUGCCUGCUCCUAUGUGCCCUCACCAUCCAAUAAAGGCCCCUUGGCUGUGGCAACAGAGGAUUGAGCAUCA
# B16: chr3:141442868:141442977:+|CDS|ENSG00000177311|unk|FALSE|unique (ssRNA)
# RNA: GGGAGUUCUACAGUCCGACGAUCCCAGCCAUCACUAAUGGGCCAAGGAUCACAAAUGCAUUUUCCAUCAUCGAAACAGAAAAUAGUAAUAACAUGUUUUCCCCGCUGGACUUGAGGGCAAGUUUCAAAAAGGUCUCCGACUCCCAACAGAGGAUUGAGCAUCA
# B17: chr12:110381781:110381892:-|CDS|ENSG00000196510|unk|total|mutant (ssRNA)
# RNA: GGGAGUUCUACAGUCCGACGAUCAAGGCCAUUCAGCUGAACAGUAACCGUGUUCAAGCUCUGCUACUUAAGGGAGCAGCACUCCGGAACAUGGGCAGAGUCCAAGAAGCAAUAAUCCACUUUCGGGAGGCCAUACGGCUCGCACAACAGAGGAUUGAGCAUCA
# B18: chr11:102955251:102955493:-|CDS|ENSG00000137745|control|control|control (ssRNA)
# RNA: GGGAGUUCUACAGUCCGACGAUCCCGAGAAAUGCAGUCUUUCUUCGGCUUAGAGGUGACUGGCAAACUUGACGAUAACACCUUAGAUGUCAUGAAAAAGCCAAGAUGCGGGGUUCCUGAUGUGGGUGAAUACAAUGUUUUCCCCAACAGAGGAUUGAGCAUCA
# B19: ENSG00000184840:stop:overlap|stop_codon|ENSG00000184840|stop_codon|NA|stop_codon (ssRNA)
# RNA: GGGAGUUCUACAGUCCGACGAUCCCAUCGGUGUCUGGCAGAUGCGGCACCUCAAGAGCUUCUUUGAAGCCAAGAAGCUUGUGUAGCUGUCCCAGGCGUCACAACCCAUCCUCCCAGGCUGGGGGAGAAAGGACCUCCUGGAACCAACAGAGGAUUGAGCAUCA
# B20: chr7:77639488:77639589:+|3pUTR|ENSG00000127947|msi1|FALSE|bound_elsewhere (ssRNA)
# RNA: GGGAGUUCUACAGUCCGACGAUCAGUAUUAUUGCCUUAAUGUCUCUUAACCCUGUUACACGCUGCUUGUAGACAUGUUAAUAUAGUAAUACCUUUAUGAUAUAUUGAGUUUAAGGACUACUCUUUUUCUGUUUUAUCAUGUAUCAACAGAGGAUUGAGCAUCA
# B21: chr15:101302471:101305355:-|three_prime_utr|ENSG00000140479|control|control|control (ssRNA)
# RNA: GGGAGUUCUACAGUCCGACGAUCACGGAAGCUCUUCAUUCAGUUCUGCUGCCGCACGUGCCUCCUGGCCGGGUAAGGGUGCCUAGCUGCCCACAGAGGGCAGGCACUCCCAUCCAUCCAUCCGUCCACCUUCCUCCAGACUGUCAACAGAGGAUUGAGCAUCA
# B22: chr22:41636480:41636706:+|CDS|ENSG00000196419|unk|total|mutant (ssRNA)
# RNA: GGGAGUUCUACAGUCCGACGAUCAUGGGCCACGGAUCUGACUACUCACUCAGUGAAGUGCUGUGGGUCUGUGCCAACCUCUUCCGUGAUGUCCAAUUCAAGAUGAGUCAUAAGAGGAUCAUGCUGUUCACCAAUGAAGACAACCAACAGAGGAUUGAGCAUCA
# Biological target: T1, UNK ZnF1-6 (called full-length) (human, UniProt Q9C0B0 30-357)
# T1 sequence: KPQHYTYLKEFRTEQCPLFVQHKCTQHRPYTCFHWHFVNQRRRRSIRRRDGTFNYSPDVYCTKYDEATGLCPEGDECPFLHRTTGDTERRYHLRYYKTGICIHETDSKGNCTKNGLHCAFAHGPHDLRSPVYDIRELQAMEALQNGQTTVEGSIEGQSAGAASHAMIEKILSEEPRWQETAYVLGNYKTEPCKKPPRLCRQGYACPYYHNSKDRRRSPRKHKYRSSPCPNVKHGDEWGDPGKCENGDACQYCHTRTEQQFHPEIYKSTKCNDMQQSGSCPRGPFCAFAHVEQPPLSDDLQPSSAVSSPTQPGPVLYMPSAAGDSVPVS
# Assay: nsRBNS (natural sequence RNA bind-n-seq); RBNS binding buffer (assumed for nsRBNS): 25 mM Tris pH 7.5, 150 mM KCl, 3 mM MgCl2, 0.01% Triton X-100, 500 ug/ml BSA, 20 U/ml SUPERase-In, 4 C; UNK is unkempt and MSI1 is Musashi-1; names of the RNAs are library labels; protein concentration not given here; high values mean tight binding
row,Binder,binding signal [enrichment R]
1,B1,0.758
2,B2,1.14
3,B3,0.59
4,B4,0.8
5,B5,0.288
6,B6,0.376
7,B7,0.577
8,B8,0.902
9,B9,0.638
10,B10,0.466
11,B11,0.473
12,B12,0.863
13,B13,1.77
14,B14,0.584
15,B15,0.501
16,B16,0.633
17,B17,0.575
18,B18,0.62
19,B19,0.576
20,B20,0.938
21,B21,0.701
22,B22,0.517
